From PubChem BioAssay (NCI) come the findings set out here.

“And” between values parts separate entries of the source, which are not always exact repeats. Equal entries are not always repeated.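 How tested: cells in 96-well plates exposed to compound for 48 hours at five concentrations. At the GI50, growth is halved. TGI marks complete inhibition of growth.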

The assay relates to NCI-H322M lung. As to the kind of experiment: growth of human tumour cells (NCI), 48 h.
Molecule `CCOC(=O)CCN1C(=O)c2c(NC(=O)C(=O)O)cccc2S1(=O)=O` registered a TGI of over 100 µM. On the same count and under the same terms, to `O=C1/C(=C/c2ccccc2)CN(C(=O)Oc2ccccc2)C/C1=C\c1ccccc1` belongs over 100 µM.

Regarding `O=C(/C=C(/C=C/c1csc2ccccc12)OB(F)F)/C=C/c1csc2ccccc12`, the GI50 is over 50 µM and the TGI is over 50 µM. Take `N#CC(NNC(=O)c1c(Cl)c(Cl)c(Cl)c(Cl)c1-c1nc2ccc(C(=O)c3ccccc3)cc2[nH]1)c1cccc(Oc2ccccc2)c1` (stereo not drawn): the TGI was over 100 µM.

In turn, `NC(=O)c1ccc(S(=O)(=NS(=O)(=O)c2ccccc2)c2ccc(C(N)=O)cc2)cc1` had a TGI of over 100 µM.

Consider `COc1ccccc1NC(=O)NS(=O)(=O)c1ccccc1`, for which the TGI was over 100 µM. Same read-out and setting: to `CC(=O)N1C(=O)/C(=C\C(=O)c2ccc(Cl)cc2)c2ccccc21` belongs 48.2 µM. Consider `CCC[CH2][Sn]1([CH2]CCC)[O]N=Cc2ccccc2[O]1`, for which the GI50 was 1.92 µM and the TGI was 4.13 µM. Consider `[O-][n+]1cc(SCc2ccccc2)ncc1SCc1ccccc1`, for which the TGI was over 10 µM. The same measure, in the same setting: to `COC1OC2COC(c3ccccc3)OC2C(OC(=S)c2ccccc2)C1O` (stereo not drawn) belongs over 100 µM.

`CCc1cc2c(c3[nH]ccc13)[C@@H](C)C[C@H]2C` showed a TGI of 34.2 µM. The same measure, in the same setting: to `CC(C)N(C(=O)C12C3C4C5C3C1(C(=O)N(C(C)C)C(C)C)C5C42)C(C)C` (stereo not drawn) belongs over 100 µM; to `O=[P+](O)c1cc2c3ccccc3ccc2c2ccccc12`, over 100 µM; to `CC(=O)OCC12C(OC(C)=O)C[C@@H](C)C3(CC(c4ccoc4)OC3=O)C1CCC(OC(C)=O)C21CO1` (stereo partly drawn), over 100 µM. Same read-out and setting: to `CC(C)(CO)Nc1c(O)c2c(c(O)c1Cl)C(=O)C=CC2=O` belongs 2.61 µM; to `CC(C(=O)C(C)O[Si](c1ccccc1)(c1ccccc1)C(C)(C)C)=P(c1ccccc1)(c1ccccc1)c1ccccc1` (stereo not drawn), 12.8 µM.

As for `Cn1cc(C2=C(c3cccc(Cl)c3)C(=O)NC2=O)c2ccccc21`, the GI50 was over 25 µM and the TGI was over 25 µM. Turning to `O=C(N/N=C\c1cc(Br)cc(Br)c1O)N/N=C/c1cc(Br)cc(Br)c1O`, the GI50 is 3.87 µM and the TGI stood at 19.2 µM. For `COc1cc2cc(C(=O)N3C[C@H](CCl)c4c3cc(O)c3ccccc43)[nH]c2c(OC)c1OC`, the GI50 is 0.0698 µM; the TGI is 0.821 µM and 3.53 µM. As to `Fc1ccc(-c2ncn(C3CCNCC3)c2-c2ccnc(Oc3ccc(Oc4ccccc4)cc3)n2)cc1`, the GI50 is 4.31 µM and the TGI is 7.98 µM. As for `CC(=O)c1nc(C#N)c(N)o1`, the TGI was over 100 µM. On the same count and under the same terms, to `O=C1CSC2=NC3=C(COC/C3=C\c3ccc(F)cc3)C(c3ccc(F)cc3)N12` (stereo not drawn) belongs over 100 µM; to `O=C1CCC(=O)C(C(=O)CCC(=O)Nc2ccc(Cl)cc2)C1` (stereo not drawn), over 100 µM.

As to `C=C1C(=O)O[C@H]2[C@H]1CC/C(COC(=O)c1ccc(Br)cc1)=C\CC[C@@]1(C)O[C@@H]21`, the GI50 is 2.46 µM and the TGI was 7.43 µM.

With `C/C(=N/OCCC(=O)O)C1CC1`, the TGI was over 100 µM. Consider `CN(C)CC(C)(C)C(=O)/C=C/c1ccccc1`, for which the TGI worked out at 27.6 µM. Same read-out and setting: to `CCC(C)Cn1c(C)nc2c1C(=O)c1ccccc1C2=O` (stereo not drawn) belongs over 100 µM. Regarding `Cc1cncc2cccc(S(=O)(=O)N3CCCNC[C@@H]3C)c12`, the GI50 is 72.4 µM and the TGI was over 100 µM.

For `C[C@@H]1CC[C@H]2C(CN(C)CC3=C(C(F)(F)F)O[C@@H]4O[C@@]5(C)CC[C@H]6[C@H](C)CC[C@@H]3[C@@]46OO5)=C(C(F)(F)F)O[C@@H]3O[C@@]4(C)CC[C@@H]1[C@]32OO4`, the GI50 is over 75.2 µM and the TGI is over 100 µM.

As to `COc1cc2c3c4[n+](cc2c(OC)c1OC)CCC4CCC3` (stereo not drawn), the TGI was over 100 µM.

As for `CC1CC2OC(=N)C1(C#N)C2(C#N)C#N` (stereo not drawn), the TGI was over 100 µM. Still for that read-out and setting: to `C/C(=N\Nc1nc2ccccc2n1C)c1ccncn1` belongs over 100 µM; to `CN1CCN(C2CC(=O)c3c(Cl)sc(Cl)c32)CC1` (stereo not drawn), over 53.4 µM; to `Cc1cccc2c1C(=O)/C(=C/c1ccccc1C(=O)O)C2`, over 100 µM.

`COc1ccc(C(OCC2OC(n3ccc(Oc4c(F)c(F)c(F)c(F)c4F)nc3=O)CC2OP(OCCC#N)N(C(C)C)C(C)C)(c2ccccc2)c2ccc(OC)cc2)cc1` (stereo not drawn) registered a TGI of over 100 µM. Still for that read-out and setting: to `COc1ccc(C2=C(N)c3cc(OC)ccc3C2=O)cc1` belongs over 100 µM; to `C=C1CC2C[C@H](OS(=O)(=O)c3ccc(C)cc3)C(C1)N2C` (stereo partly drawn), over 100 µM.

As to `Cc1cccc(-c2cc(=O)c3cc(C)cnc3[nH]2)c1`, the TGI is over 100 µM. Still for that read-out and setting: to `CC(=O)OC1CC2C(C)(C)C(=O)C=C[C@]2(C)C2CCC3(C)C(=CCC3[C@H](CO)C[C@H](O)C(=O)C(C)(C)O)[C@]12C` (stereo partly drawn) belongs 60.7 µM. Consider `CC(=O)[O-].CC(=O)[O-].CC(=O)[O-].CC(=O)[O-].CO.CO.CO.[Rh+2].[Rh+2].c1ccc(-c2ccccn2)nc1`, for which the GI50 is over 100 µM and the TGI is over 100 µM.

The molecule `CN(C)/C=C/C(=O)c1cccc(C(=O)/C=C/N(C)C)n1` gave a TGI of over 100 µM. Still for that read-out and setting: to `Cc1nc2ccccc2nc1N1CCCC1` belongs over 100 µM. Consider `COc1ccc(Nc2ccnc3cc(Cl)ccc23)cc1CN(CCCl)CCCl`, for which the GI50 is 2.27 µM and the TGI turned out to be 7.29 µM.

The molecule `O=C(Nc1ccccc1C(=O)O)C(=Cc1ccccc1O)NC(=O)c1ccccc1` yielded a TGI of over 100 µM. Same read-out and setting: to `N#CC(N)(C(=O)C(=O)NCCCNC(=O)C(=O)C(N)(C#N)c1ccc(Cl)cc1)c1ccc(Cl)cc1` (stereo not drawn) belongs over 100 µM.

The molecule `Cc1cc(C)c(N)c(CO)c1` returned a TGI of over 100 µM. Same read-out and setting: to `C[C@@H]1CC(=O)[C@@]2(C)[C@](O)(CCC3O[C@]32C)[C@@]12CC(c1ccoc1)OC2=O` (stereo partly drawn) belongs over 100 µM.
